# Source: patent publication US20220017635A1 (Kyowa Kirin, published 2022)
# T1: FLAG-Fc-monkey TfR (monkey, UniProt Q5RDH6 89-760)
# T1 construct: also called FLAG-Fc-monkey TfR protein; soluble monkey TfR antigen; not shown: FLAG-tag and Fc region of human IgG from the INPEP4 vector, added to the N terminus
# T1 chain: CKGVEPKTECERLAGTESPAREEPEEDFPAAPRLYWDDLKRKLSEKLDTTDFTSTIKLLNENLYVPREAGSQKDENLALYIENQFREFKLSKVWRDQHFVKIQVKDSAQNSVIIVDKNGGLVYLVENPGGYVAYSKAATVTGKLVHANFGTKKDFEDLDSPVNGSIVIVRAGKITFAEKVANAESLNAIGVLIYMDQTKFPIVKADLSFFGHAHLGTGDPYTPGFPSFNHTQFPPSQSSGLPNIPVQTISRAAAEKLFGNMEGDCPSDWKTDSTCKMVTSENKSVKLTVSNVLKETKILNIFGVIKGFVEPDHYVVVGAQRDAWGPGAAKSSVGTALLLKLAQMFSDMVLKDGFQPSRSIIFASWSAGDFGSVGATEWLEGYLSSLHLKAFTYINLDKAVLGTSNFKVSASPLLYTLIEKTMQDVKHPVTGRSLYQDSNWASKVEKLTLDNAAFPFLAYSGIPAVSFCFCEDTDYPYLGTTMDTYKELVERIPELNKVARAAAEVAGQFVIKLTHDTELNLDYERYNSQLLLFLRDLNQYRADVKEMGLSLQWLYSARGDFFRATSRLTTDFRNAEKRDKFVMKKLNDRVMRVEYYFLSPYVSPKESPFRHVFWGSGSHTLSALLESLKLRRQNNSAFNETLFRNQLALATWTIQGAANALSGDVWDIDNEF
# Columns and labels:
# human EGFR-GST [1] = biological target: T2, human EGFR-GST (human, UniProt P00533 fragment); test: SPR (Biacore T100), KD for human EGFR-GST divided by KD for monkey EGFR-GST
# T2 construct: also called human EGFR-GST protein; not shown: GST fused at the C terminus, with any junction residues
# human EGFR-GST [2] = biological target: T2, human EGFR-GST; test: SPR (Biacore T100), bispecific captured via anti-human IgG, antigen as analyte, single cycle kinetics
# monkey EGFR-GST = biological target: T3, monkey EGFR-GST (monkey, UniProt P55245 fragment); test: as above
# T3 construct: also called monkey EGFR-GST protein; not shown: GST added to the C terminus
# FLAG-Fc-human TfR [3] = biological target: T4, FLAG-Fc-human TfR (human, UniProt P02786); test: SPR (Biacore T100), KD for FLAG-Fc-human TfR divided by KD for FLAG-Fc-monkey TfR
# T4 construct: also called FLAG-Fc-human TfR protein; soluble human TfR antigen; not shown: FLAG-tag and Fc region of human IgG from the INPEP4 vector, added to the N terminus
# FLAG-Fc-human TfR [4] = biological target: T4, FLAG-Fc-human TfR; test: SPR (Biacore T100), bispecific captured via anti-human IgG, antigen as analyte, single cycle kinetics
# FLAG-Fc-monkey TfR = biological target: T1, FLAG-Fc-monkey TfR; test: as above
Human EGFR [nM]/Monkey EGFR [nM] (KD ratio) (human EGFR-GST [1]),Kd (human EGFR-GST [2]) [nM],Kd (monkey EGFR-GST) [nM],Human TfR [nM]/Monkey TfR [nM] (KD ratio) (FLAG-Fc-human TfR [3]),Kd (FLAG-Fc-human TfR [4]) [nM],Kd (FLAG-Fc-monkey TfR) [nM],Binder
0.84,0.21,0.25,,,,"E12-TfR1071 (bispecific antibody, also called E12-TfR1071 bispecific antibody; EGFR-TfR bispecific antibody; copies: 2 + 4) heavy: QVQLVESGGGLVQPGGSLRLSCAASRFTFSAYAMGWVRQAPGKGLEWVSIIDSGGVYTYYADSMKGRFTISRDNSKNTLYLQMNSLRAEDTAVYYCARDHYGVVWGLGDYWGQGTLVTVSSASTKGPSVFPLAPCSRSTSESTAALGCLVKDYFPEPVTVSWNSGALTSGVHTFPAVLQSSGLYSLSSVVTVPSSSLGTKTYTCNVDHKPSNTKVDKRVYVQLVESGGGLVQPGGSLRLSCAASGFSFDKYTMNWVRQAPGKGLEWVSVISNGGVSTDYADSVKGRFTVSRDNSKNTLYLQMNSLRAEDMATYYCARASQPWLYRTGADVWGQGTLVTVSSASTKGPSVFPLAPCSRSTSESTAALGCLVKDYFPEPVTVSWNSGALTSGVHTFPAVLQSSGLYSLSSVVTVPSSSLGTKTYTCNVDHKPSNTKVDKRV[left out - human IgG4 Fc with S228P L235E R409K (EU numbers)] VL: [left out - about 100 residues]"
0.46,0.31,0.67,,,,"E17-TfR1071 (bispecific antibody, also called EGFR-TfR bispecific antibody) heavy: QVQLQQWGAGLLKPSETLSLTCALYSGSFSAQDWSWIRQSPEKGLEWIGEIWQGGKTNYNPSLKSRVSISRDNSKNQLSLQLSSVTAADTAVYYCARVDWSYRVFEIWGQGTMVTVSSASTKGPSVFPLAPCSRSTSESTAALGCLVKDYFPEPVTVSWNSGALTSGVHTFPAVLQSSGLYSLSSVVTVPSSSLGTKTYTCNVDHKPSNTKVDKRVYVQLVESGGGLVQPGGSLRLSCAASGFSFDKYTMNWVRQAPGKGLEWVSVISNGGVSTDYADSVKGRFTVSRDNSKNTLYLQMNSLRAEDMATYYCARASQPWLYRTGADVWGQGTLVTVSSASTKGPSVFPLAPCSRSTSESTAALGCLVKDYFPEPVTVSWNSGALTSGVHTFPAVLQSSGLYSLSSVVTVPSSSLGTKTYTCNVDHKPSNTKVDKRV[left out - human IgG4 Fc with S228P L235E R409K (EU numbers)] VL: [left out - about 100 residues]"
,,,0.19,10.7,56.5,"E12-cyno186 (bispecific antibody, also called EGFR-TfR bispecific antibody; copies: 2 + 4) heavy: QVQLVESGGGLVQPGGSLRLSCAASRFTFSAYAMGWVRQAPGKGLEWVSIIDSGGVYTYYADSMKGRFTISRDNSKNTLYLQMNSLRAEDTAVYYCARDHYGVVWGLGDYWGQGTLVTVSSASTKGPSVFPLAPCSRSTSESTAALGCLVKDYFPEPVTVSWNSGALTSGVHTFPAVLQSSGLYSLSSVVTVPSSSLGTKTYTCNVDHKPSNTKVDKRVQVQLVESGGEFVQPGGSLRLSCAASGFPFKGYAMNWVRQAPGKGLEWVSRISNGGSYIDYADSVKGRFTISRDNSKNTLYLQIDSLRTEDTAVYYCAKAKDAYRWNNAIDEWGQGTLVTVSSASTKGPSVFPLAPCSRSTSESTAALGCLVKDYFPEPVTVSWNSGALTSGVHTFPAVLQSSGLYSLSSVVTVPSSSLGTKTYTCNVDHKPSNTKVDKRV[left out - human IgG4 Fc with S228P L235E R409K (EU numbers)] VL: [left out - about 100 residues]"
,,,0.75,4.02,5.39,"E17-cyno186 (bispecific antibody, also called EGFR-TfR bispecific antibody) heavy: QVQLQQWGAGLLKPSETLSLTCALYSGSFSAQDWSWIRQSPEKGLEWIGEIWQGGKTNYNPSLKSRVSISRDNSKNQLSLQLSSVTAADTAVYYCARVDWSYRVFEIWGQGTMVTVSSASTKGPSVFPLAPCSRSTSESTAALGCLVKDYFPEPVTVSWNSGALTSGVHTFPAVLQSSGLYSLSSVVTVPSSSLGTKTYTCNVDHKPSNTKVDKRVQVQLVESGGEFVQPGGSLRLSCAASGFPFKGYAMNWVRQAPGKGLEWVSRISNGGSYIDYADSVKGRFTISRDNSKNTLYLQIDSLRTEDTAVYYCAKAKDAYRWNNAIDEWGQGTLVTVSSASTKGPSVFPLAPCSRSTSESTAALGCLVKDYFPEPVTVSWNSGALTSGVHTFPAVLQSSGLYSLSSVVTVPSSSLGTKTYTCNVDHKPSNTKVDKRV[left out - human IgG4 Fc with S228P L235E R409K (EU numbers)] VL: [left out - about 100 residues]"
